The target in assay [1] is T1, Abeta(1-40), fibrillar, immobilized (UniProt P05067 fragment).
T1 construct: domain: Abeta(1-40); Numbers 1-40 count on the Abeta peptide, not on the APP precursor; also called Abeta fibrils; fibrillar Abeta
Nature of the assay: indirect ELISA on immobilized Abeta fibrils. The procedure: Functionality of mAb31 was confirmed by ELISA. Briefly, Abeta(1-40) was coated at 7 μg/mL in PBS onto Maxisorp plates for 3 days at 37° C. to produce fibrillar Abeta, then dried for 3 h at RT. The plate was blocked with 1% Crotein C and 0.1% RSA in PBS (blocking buffer) for 1 h at RT, then washed once with wash buffer. mAb31 constructs were added at concentrations up to 100 nM in blocking buffer and incubated at 4° C. overnight. After 4 wash steps, constructs were detected as indicated above.
Background: In an ELISA, binding on a coated surface is turned into a signal by an enzyme label.

Assay [2] deals with T2, recombinant mouse transferrin receptor (mTfR), extracellular domain (mouse, UniProt Q62351).
T2 construct: extracellular domain; Bought protein; also called murine Transferrin receptor 1
T2 sequence (Q62351 89-763): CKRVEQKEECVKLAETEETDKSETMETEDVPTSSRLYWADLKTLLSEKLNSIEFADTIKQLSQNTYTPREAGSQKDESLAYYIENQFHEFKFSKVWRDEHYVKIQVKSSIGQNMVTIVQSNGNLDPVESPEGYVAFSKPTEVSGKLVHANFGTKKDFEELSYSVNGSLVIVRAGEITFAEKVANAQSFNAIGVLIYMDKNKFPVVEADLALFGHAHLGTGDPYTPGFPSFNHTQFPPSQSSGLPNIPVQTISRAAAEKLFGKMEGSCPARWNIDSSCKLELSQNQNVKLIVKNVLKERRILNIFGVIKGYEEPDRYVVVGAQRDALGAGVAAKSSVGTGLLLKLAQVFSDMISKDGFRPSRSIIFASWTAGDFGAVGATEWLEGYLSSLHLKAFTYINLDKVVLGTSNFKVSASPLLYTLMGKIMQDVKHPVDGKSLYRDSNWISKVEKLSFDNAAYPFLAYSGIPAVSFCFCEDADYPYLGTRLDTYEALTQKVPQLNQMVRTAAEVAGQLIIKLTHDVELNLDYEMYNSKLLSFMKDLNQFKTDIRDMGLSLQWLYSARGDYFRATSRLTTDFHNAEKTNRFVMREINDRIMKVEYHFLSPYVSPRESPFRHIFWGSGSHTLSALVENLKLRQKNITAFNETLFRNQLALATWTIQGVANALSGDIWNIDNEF
Nature of the assay: indirect ELISA on immobilized mTfR extracellular domain. The procedure:
Binding of mAb31-8D3 constructs to mouse transferrin receptor (mTfR) was assessed by indirect ELISA. To this end, recombinant mTfR (extracellular domain; Sino Biological) was coated to Maxisorb microtiter plate (Nunc) at 1 μg/mL in PBS at 4° C. overnight. After blocking in 1% Cro-tein-C/PBS (blocking buffer; Roche) for 1 h at RT and 4 washes with 0.1% Tween-20/PBS (wash buffer), mAb31-8D3 constructs were added to the wells at concentrations between 0.01 and 150 nM in blocking buffer and incubated for 1 h at RT. After 4 wash steps, constructs were detected by addition of anti-human-IgG-HRP (Jackson Immunoresearch) at 1:10,000 dilution in blocking buffer […], followed by 6 washes and incubation in TMB (Sigma). Absorbance was read out at 450 nm after stopping color development with 1 N HCl.

T1 sequence (P05067 672-711 limits assumed): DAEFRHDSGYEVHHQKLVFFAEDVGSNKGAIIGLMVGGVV

B1: Tetravalent Mab31-scFab(8D3) (mAb31-8D3-dFab) (bispecific antibody, human IgG1, kappa)
heavy: QVELVESGGGLVQPGGSLRLSCAASGFTFSSYAMSWVRQAPGKGLEWVSAINASGTRTYYADSVKGRFTISRDNSKNTLYLQMNSLRAEDTAVYYCARGKGNTHKPYGYVRYFDVWGQGTLVTVSS[letters of human IgG1 constant region omitted]GSGGGGSGGGGSGGGGSDIQMTQSPASLSASLEEIVTITCQASQDIGNWLAWYQQKPGKSPQLLIYGATSLADGVPSRFSGSRSGTQFSLKISRVQVEDIGIYYCLQAYNTPWTFGGGTKVEIKRTVAAPSVFIFPPSDEQLKSGTASVVCLLNNFYPREAKVQWKVDNALQSGNSQESVTEQDSKDSTYSLSSTLTLSKADYEKHKVYACEVTHQGLSSPVTKSFNRGECGGGGSGGGGSGGGGSGGGGSGGGGSGGGGSGGEVQLVESGGGLVQPGNSLTLSCVASGFTFSNYGMHWIRQAPKKGLEWIAMIYYDSSKMNYADTVKGRFTISRDNSKNTLYLEMNSLRSEDTAMYYCAVPTSHYVVDVWGQGVSVTVSSASTKGPSVFPLAPSSKSTSGGTAALGCLVKDYFPEPVTVSWNSGALTSGVHTFPAVLQSSGLYSLSSVVTVPSSSLGTQTYICNVNHKPSNTKVDKKVEPKSC
light: DIVLTQSPATLSLSPGERATLSCRASQSVSSSYLAWYQQKPGQAPRLLIYGASSRATGVPARFSGSGSGTDFTLTISSLEPEDFATYYCLQIYNMPITFGQGTKVEIKRTVAAPSVFIFPPSDEQLKSGTASVVCLLNNFYPREAKVQWKVDNALQSGNSQESVTEQDSKDSTYSLSSTLTLSKADYEKHKVYACEVTHQGLSSPVTKSFNRGEC
notes: also called dFab-mAb31; dFab-MAb31
Consider B1, for which the binding result in assay [1] and in assay [2] was “binds” throughout.

B2: Trivalent Mab31-scFab(8D3) (mAb31-8D3-sFab) (bispecific antibody, human IgG1, kappa)
heavy 1: QVELVESGGGLVQPGGSLRLSCAASGFTFSSYAMSWVRQAPGKGLEWVSAINASGTRTYYADSVKGRFTISRDNSKNTLYLQMNSLRAEDTAVYYCARGKGNTHKPYGYVRYFDVWGQGTLVTVSSASTKGPSVFPLAPSSKSTSGGTAALGCLVKDYFPEPVTVSWNSGALTSGVHTFPAVLQSSGLYSLSSVVTVPSSSLGTQTYICNVNHKPSNTKVDKKV[letters of human IgG1 Fc with changes omitted]GGSGGGGSGGGGSGGGGSDIQMTQSPASLSASLEEIVTITCQASQDIGNWLAWYQQKPGKSPQLLIYGATSLADGVPSRFSGSRSGTQFSLKISRVQVEDIGIYYCLQAYNTPWTFGGGTKVEIKRTVAAPSVFIFPPSDEQLKSGTASVVCLLNNFYPREAKVQWKVDNALQSGNSQESVTEQDSKDSTYSLSSTLTLSKADYEKHKVYACEVTHQGLSSPVTKSFNRGECGGGGSGGGGSGGGGSGGGGSGGGGSGGGGSGGEVQLVESGGGLVQPGNSLTLSCVASGFTFSNYGMHWIRQAPKKGLEWIAMIYYDSSKMNYADTVKGRFTISRDNSKNTLYLEMNSLRSEDTAMYYCAVPTSHYVVDVWGQGVSVTVSSASTKGPSVFPLAPSSKSTSGGTAALGCLVKDYFPEPVTVSWNSGALTSGVHTFPAVLQSSGLYSLSSVVTVPSSSLGTQTYICNVNHKPSNTKVDKKVEPKSC
heavy 2: QVELVESGGGLVQPGGSLRLSCAASGFTFSSYAMSWVRQAPGKGLEWVSAINASGTRTYYADSVKGRFTISRDNSKNTLYLQMNSLRAEDTAVYYCARGKGNTHKPYGYVRYFDVWGQGTLVTVSSASTKGPSVFPLAPSSKSTSGGTAALGCLVKDYFPEPVTVSWNSGALTSGVHTFPAVLQSSGLYSLSSVVTVPSSSLGTQTYICNVNHKPSNTKVDKKV[letters of human IgG1 Fc with changes omitted]
light: DIVLTQSPATLSLSPGERATLSCRASQSVSSSYLAWYQQKPGQAPRLLIYGASSRATGVPARFSGSGSGTDFTLTISSLEPEDFATYYCLQIYNMPITFGQGTKVEIKRTVAAPSVFIFPPSDEQLKSGTASVVCLLNNFYPREAKVQWKVDNALQSGNSQESVTEQDSKDSTYSLSSTLTLSKADYEKHKVYACEVTHQGLSSPVTKSFNRGEC
notes: also called sFab-mAb31; sFab-MAb31
B2: the binding result in assay [2] is “binds”.

(Values after patent US20150322149A1 (Hoffmann-La Roche, published 2015).)
